In the supplement of paper PMC3334620:
Whole data set: some 33,000 sequences, median “E-score (-0.5 to 0.5)” near -0.016, cut for the highest 2% near 0.32. The list shows a part of the results.

Target: T1, Stp1 (UniProt B3LFK1)
T1 sequence: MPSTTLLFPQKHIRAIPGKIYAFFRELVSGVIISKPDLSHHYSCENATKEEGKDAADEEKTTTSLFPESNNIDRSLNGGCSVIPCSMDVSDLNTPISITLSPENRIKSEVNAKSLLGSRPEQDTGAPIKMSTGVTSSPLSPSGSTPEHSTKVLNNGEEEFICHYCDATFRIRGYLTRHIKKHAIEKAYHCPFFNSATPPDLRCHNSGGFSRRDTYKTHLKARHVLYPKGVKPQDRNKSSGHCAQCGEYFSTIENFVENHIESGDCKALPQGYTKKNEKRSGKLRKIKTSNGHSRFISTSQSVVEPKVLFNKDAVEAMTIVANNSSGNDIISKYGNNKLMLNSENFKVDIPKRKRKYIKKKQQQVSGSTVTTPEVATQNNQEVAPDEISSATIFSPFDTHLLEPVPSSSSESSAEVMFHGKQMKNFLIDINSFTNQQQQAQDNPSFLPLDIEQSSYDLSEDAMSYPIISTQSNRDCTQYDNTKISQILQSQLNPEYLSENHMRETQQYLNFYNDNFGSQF
Assay: PBM E-score (8-mer binding enrichment) (E-score (-0.5 to 0.5)); higher = stronger / more preferred TF binding; most listed sequences are background and not binding sites
Settings: protein concentration: 200 nM; construct: GST-full length
Procedure: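 Universal 'all 10-mer' protein binding microarrays (Agilent AMADID 015681) probed with GST-tagged S. cerevisiae TFs (full-length or DBD) made by in vitro transcription/translation (PURExpress), about 100-200 nM. Bound TF was detected with fluorescent anti-GST. Each ungapped 8-mer (which stands for itself and its reverse complement) is scored by the PBM enrichment score (E-score), a modified Wilcoxon-Mann-Whitney statistic from -0.5 to +0.5, computed with the Universal PBM Analysis Suite. Scale: above 0.35 generally sequence-specific binding.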

Point of comparison: GCCCACCC, “PBM E-score” value 0.00271. Against it:
- CGGGGAAC — lower, -0.0321
- AAAATCGC — higher, 0.117
- GGCCTACA — lower, -0.107
- GATGGGGC — higher, 0.103
- CGACCTAC — lower, -0.244
- ACCCGCGC — higher, 0.232
- CCAAACTC — higher, 0.0339
- AACGCTCG — higher, 0.119
- ATGGCCAT — lower, -0.0834
- AATCGCCT — higher, 0.302
- GTCGGGTA — lower, -0.066
- GGGTCTAA — lower, -0.102
- CTTAGATA — higher, 0.0095
- ATACCGTA — higher, 0.133
- CTGGGGTA — lower, -0.105
- CTGTTCGC — higher, 0.176
- GTTACTAA — higher, 0.127
- ACCAAGTA — higher, 0.0595
- GATGGAAA — lower, -0.107
- TCCTCTCA — lower, -0.194
- CTATTGTC — lower, -0.0342
- ACGGGAAT — lower, -0.0268
- GTTGTGAA — higher, 0.116
- CTCTCCCA — lower, -0.258
- GTTGGAGA — lower, -0.0668
- CCGGATAA — higher, 0.00559
- ATTTTTCG — higher, 0.177
- GGGTTCAA — lower, -0.0843
- ATTTACTA — higher, 0.0619
- GTATATGA — higher, 0.0505
- ACGGCAGG — higher, 0.343
- AAGGATGT — lower, -0.0561
- GGCGGGTA — lower, -0.0661
- AGTTCATC — lower, -0.111
- AAATATTG — higher, 0.191
- CCGGCAAG — lower, -0.0231
- GTCTATGA — higher, 0.106
- GGCGACAC — higher, 0.154
- CGTCTCGA — higher, 0.0607
- AAGGATCC — lower, -0.118
- AATGATTA — higher, 0.156
- CACCGTTA — higher, 0.0959
- AGGCTAAA — higher, 0.14
- CCGCCCAC — higher, 0.0691
- CACTCATG — lower, -0.0672
- ACGCACAG — lower, -0.00964
- CTTGCACC — higher, 0.0439
- AGGCGCTA — higher, 0.358
- GACATTCC — lower, -0.133
- CAAAACAA — lower, -0.0461
- CCTGGGAG — lower, -0.226
- GGGTGACC — lower, -0.273
- AAGGGCTA — lower, -0.192
- CGAGGATC — lower, -0.0384
- TATCCGAA — higher, 0.111
- GAGAGCCA — higher, 0.0632
- CCGGGTTC — lower, -0.118
- CCAGGCTC — lower, -0.0925
- GCCAGGTA — higher, 0.0834
- AAGATCAC — higher, 0.214
- CGAACAGA — higher, 0.0325
- ACCAAACC — lower, -0.0128
- ACCGACAT — higher, 0.107
- GTCGCGAA — lower, -0.00552
- GCGATGCA — lower, -0.156
- GAAGATCA — higher, 0.0771
- AACGTTAC — lower, -0.0304
- AACTATAC — higher, 0.0425
- GACCACCA — lower, -0.14
- ATTGGATG — higher, 0.0406
- GATCTTTA — higher, 0.0673
- AGGTCTTC — lower, -0.21
- ACCTAGCT — lower, -0.284
- AATGGAGT — lower, -0.202
- AAAATCAT — higher, 0.0294
- ATGTCCTG — lower, -0.2
- CAGATAAA — higher, 0.0136
- GGGCGATA — lower, -0.147
- TCAGACAA — higher, 0.0572
- AAACCCGG — lower, -0.0513
- GTGCCCCA — higher, 0.149
- AATTTCTA — higher, 0.0762
- AAGCAGCA — lower, -0.206
- ATTAGTCA — higher, 0.0485
- CGAGGAAC — higher, 0.137
- ATTCTGGA — higher, 0.0538
- AGAAATGC — higher, 0.13
- ACTATTAA — higher, 0.175
- AATCGCAG — higher, 0.0081
- GTTGCCAA — higher, 0.0695
- AATATCGG — higher, 0.0446
- CGGTCTGA — lower, -0.0453
- CGTGTACC — lower, -0.0873
- CACATACG — higher, 0.116
- CAGTTGGC — lower, -0.0796
- ACGCGATA — lower, -0.0613
- GGCCATTA — higher, 0.0667
- CAAAGGCA — higher, 0.184
- TCGTCCAA — higher, 0.107
- GCATGCCA — higher, 0.025
- ATGGGAAT — lower, -0.176
- GCCATTTA — higher, 0.182
- CAGCATCA — higher, 0.0143
- TATTTTGA — higher, 0.0277
- AAACGACT — lower, -0.089
- CTATCATA — higher, 0.233
- CACGCTTC — lower, -0.11
- CTGTTCAA — lower, -0.00158
- GTGCGCTA — lower, -0.151
- AAATAGCT — lower, -0.0494
- CCCATTTC — lower, -0.318
- CAAGTTAA — lower, -0.0446
- ACTATACT — lower, -0.0201
- TTCCCCAA — lower, -0.128
- AACAATGG — lower, -0.101
- GCGAATAC — higher, 0.00434
- AACTCAAT — lower, -0.0793
- CCGCATGC — higher, 0.279
- AACTGGCA — higher, 0.0485
- CCCAGCAG — lower, -0.0374
- CGGTACCC — lower, -0.188
- CTGCATAC — higher, 0.0385
- ATCTCTAG — lower, -0.0509
- ATACTTTA — higher, 0.113
- CCGTCCCC — lower, -0.154
- AATGTTCG — lower, -0.14
- CCAGGCCA — lower, -0.246
- TAGACAAA — higher, 0.045
- GGTTGATA — lower, -0.0307
- GAGAGGCC — lower, -0.102
- AATTGTGT — lower, -0.0776
- ACTCATAT — lower, -0.00183
- AAAGTGGA — lower, -0.151
- AGGACGAG — lower, -0.295
- CTAGTTTA — higher, 0.0466
- CGCGCTTA — higher, 0.147
- CATTTACA — higher, 0.0742
- GCATGTTA — higher, 0.206
- GAAAGGTC — lower, -0.263
- CGTGTTAG — higher, 0.245
- ACCCTCTG — lower, -0.245
- AAGGCCTA — lower, -0.0711
- CTTTGCGA — higher, 0.0799
- ACTTGACG — lower, -0.0194
- CTAAAGCC — higher, 0.0471
- ATAAGTTG — higher, 0.0546
- ACGATGCC — higher, 0.258
- ATCAACAA — higher, 0.174
- CCGGTAAC — lower, -0.197
- GCGCAACA — higher, 0.0501
- ATACGGTG — higher, 0.141
- AACTACCT — lower, -0.0767
- ACGACGTA — lower, -0.0203
- CCGACACC — lower, -0.189
- GGCTGAAC — higher, 0.12
- GCGTCTTA — higher, 0.00904
- ATGAAATG — higher, 0.00791
- GTACGTGA — higher, 0.0167
- AGGAAGTG — lower, -0.212
- AGATGGGG — lower, -0.17
- AACTTAGA — higher, 0.103
- AGCCATGC — higher, 0.121
- CGTCTGGA — lower, -0.0198
- ACGAGCGT — lower, -0.124
- ACTGCTAA — lower, -0.0758
- ATAGTGCA — higher, 0.0566
- AGCTCACA — lower, -0.0162
- CACTAGAC — lower, -0.0647
- AGCTTTAT — lower, -0.0423
- ATTTCCAA — higher, 0.153
- AAATAGCA — lower, -0.116
